Laboratory results reported in ChEMBL document CHEMBL1201862, “PubChem BioAssay data set” (2004).
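Interpolation was linear, between the two tested concentrations surrounding the appropriate level; five concentrations were tested over 48 hours in 96-well plates. The concentration for 50% growth inhibition is given as GI50.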 The source made the active and inactive calls. Cut-off read from the data, not from the text of the source: active = GI50 up to about 1.1 µM and inactive = higher.

What follows are compounds tested on NCI-H322M (assay: NCI anticancer screen, dose series, 48 h).

Structure (SMILES)	GI50
CCCSc1nc(COC(=O)NC)c(COC(=O)NC)n1C	inactive: > 100 µM
O=[N+]([O-])c1ccc2[nH]c(-c3ccc(Cl)cc3)nc2c1	inactive: 28.9 µM
CCOC(=O)c1cc2cc([N+](=O)[O-])ccc2oc1=O	inactive: > 100 µM
CC(C)c1ccc(/C(C(=O)O)=C(\O)C(=O)O)cc1	inactive: > 100 µM
CCCCCCCC/C=C\CCCCCCC/C=C1/C[C@](/C=C/C(=O)OC)(CO)OC1=O	inactive: 16.7 µM
O=C(O)C(Cc1ccccc1)Cc1ccccc1	inactive: > 100 µM
CCOC(=O)C12C(C(=O)OC)=C(C)N(NC(=O)Nc3ccccc3)C1(N)N(NC(=O)Nc1ccccc1)C(C)=C2C(=O)OC (stereo not drawn)	inactive: 26.7 µM
CCn1ncc2c(=O)n3ncn(-c4ccc(Br)cc4)c3nc21	inactive: > 100 µM
COc1cccc(C2CC(C)(O)Oc3cc4c(cc32)OCO4)c1 (stereo not drawn)	inactive: 53.5 µM
O=c1c(-c2ccccc2)c(O)nc2[nH]c3ccccc3n12	inactive: > 100 µM
Cc1oc2c(c1C)S(=O)(=O)C(C#N)C(c1ccccc1)N2 (stereo not drawn)	inactive: 97.7 µM
COC1=CC(=O)NCCN1	inactive: > 100 µM
O=C1CCCc2cc3c(cc21)CC1(C3)Cc2ccc3c(c2C1)C(=O)CCC3 (stereo not drawn)	inactive: 47.8 µM
CN1C/C(=C\c2cccs2)C2=NC(=S)NC(c3cccs3)C2C1 (stereo not drawn)	inactive: > 100 µM
Cc1ccc(S(=O)(=O)N2CCCSCCSCCCN(S(=O)(=O)c3ccc(C)cc3)CC2)cc1	inactive: > 100 µM
CCOC(=O)[C@@]12NN=N[C@@H]1[C@H]1CO[C@H](c3ccccc3)N1C2=O	inactive: 15.9 µM
CC1=NN(c2nc(N)nc(C(C#N)C(=O)c3cc4c(cc3Cl)Sc3nccn3S4(=O)=O)n2)C(C)(C)C1 (stereo not drawn)	inactive: 24 µM
COc1cc(OC)c2c(=O)c3cccc(C)c3n(C)c2c1	inactive: 63.7 µM
C[Si](C)(C)C#CCO[Si](C)(C)C	inactive: > 100 µM
O/N=C\C(=N/O)Nc1ccc(Cc2ccc(NC(/C=N\O)=N/O)cc2)cc1	inactive: 36.9 µM
COc1ccc2c(c1)CCc1c-2n(CCN2CCCCC2)c2ccc(OC)cc12	inactive: > 100 µM
CC1=NNC(=O)C1C(CC(=O)c1c[nH]c2ccccc12)C(=O)O (stereo not drawn)	inactive: > 100 µM
CC(=O)OCC1OC(n2c(=O)[nH]c(=O)c3nn[nH]c32)C(OC(C)=O)C(OC(C)=O)C1OC(C)=O (stereo not drawn)	inactive: > 100 µM
CCN(CC)c1ccc(/N=C2/C=CC(=C(C#N)C#N)c3ccccc32)c(C)c1	inactive: 4.06 µM

Structure (SMILES)	GI50
CCc1cccc(CC)c1NC(=O)CC1SC(N)=NC1=O (stereo not drawn)	inactive: > 100 µM
OCC(O)C(O)C(O)C(O)c1nnn[nH]1 (stereo not drawn)	inactive: > 100 µM
CCC1([N+](=O)[O-])CC2C=CC1C2 (stereo not drawn)	inactive: > 100 µM
Cc1ccc(S(=O)(=O)c2c(N)c3nc4ccccc4n3c3nc4ccccc4nc23)cc1	inactive: > 100 µM
CSC(=O)c1sc(SC)[n+](-c2ccccc2)c1O	inactive: 17.1 µM
COC(=O)c1c(C)oc2ccc(OC(C)=O)cc12	inactive: > 100 µM
Cc1ccc2c(c1)-c1c(C#N)c(N)nc(-c3ccccc3)c1CCS2(=O)=O	inactive: 13.6 µM
CCN(CC)CCOCCOCC1(c2ccc(Cl)c(Cl)c2)CCCCC1	inactive: 13.4 µM
Cc1c(CNc2ccc(Cl)c(Cl)c2Cl)cnc2nc(N)nc(N)c12	inactive: 3.11 µM
CN(C)c1ccc(/C=C(\C#N)C(N)=C(C#N)C#N)cc1	inactive: > 100 µM
O=[N+]([O-])c1ccc2nc3c(nc2c1)-c1c2ccccc2cc2cccc-3c12	inactive: 69.3 µM
O=C1CCCN1CCC/N=c1/cc2n(-c3ccc(Cl)cc3)c3ccccc3nc-2cc1Nc1ccc(Cl)cc1	inactive: 20.2 µM
CCCCCCCCSC1=C(Cl)C(=O)C(OC)=C(OC)C1=O	inactive: 16.6 µM
CCOC(=O)c1c(-c2ccccc2)oc(=O)c(Cc2cccc3cccnc23)c1-c1ccccc1	inactive: > 10 µM
Cc1cccc2c1Oc1cc(Cl)ccc1C2NC(=O)CCN1CCCCC1 (stereo not drawn)	inactive: 13.7 µM
O=C(/C=N/c1ccccc1S)c1ccco1	inactive: 4.67 µM
COc1ccc(OC)c(CCc2cc(OC)ccc2OC)c1	active: 0.397 µM
Cc1nc2ccccc2c(=O)n1NC(=S)Nc1cccc(Cl)c1	inactive: > 100 µM
O=c1[nH]nc(-c2ccccc2)n1-n1cnnc1	inactive: > 100 µM
CC(C)NC(=O)OCC[S+]([O-])c1c(Cl)c(Cl)nn1C (stereo not drawn)	inactive: > 100 µM
Cc1ccc(C2(C)CC/C(=N/N=C3/CCC(C)(c4ccc(C)c(C)c4)c4cc(C)c(C)cc43)c3cc(C)c(C)cc32)cc1C (stereo not drawn)	inactive: > 100 µM
C/C(=N\NC(=S)N1CCN(C)CC1)c1nc2cccnc2[nH]1	inactive: > 100 µM
CN(C)/C=N/c1c2ccccc2nc2ccccc12	inactive: 6.55 µM
CCOCc1cc(=O)c2c(O)cc3c(c2o1)CCC(C)(C)O3	inactive: > 100 µM

Structure (SMILES)	GI50
COC(=O)c1c2c(cc3c1CC1(Cc4ccccc4C1=O)C3)CCC2 (stereo not drawn)	inactive: 29.5 µM
BrC1(c2ccccc2)C[n+]2c(-c3ccccc3)cc(-c3ccccc3)cc2-c2ccccc21 (stereo not drawn)	inactive: 2.49 µM
CCOc1ccc2c(c1)c(=O)c1c(NCCN(CC)CC)ccc3nnn2c31	inactive: 14.4 µM
C[n+]1c2ccccc2c(N=[N+]=[N-])c2ccccc21	inactive: > 10 µM
CN(C)CCCNc1c2c(=O)n(C)c(=O)nc-2n(C)c2ccccc12	inactive: 3.78 µM
Cc1cc(C)c2c(n1)S(=O)(=O)N(CCCN1CCN(c3cccc(C(F)(F)F)c3)CC1)c1c-2nn(C)c1C	inactive: 68.2 µM
COc1cc(/C=C2\C(=O)N(c3cccc([N+](=O)[O-])c3)C(c3ccccc3)S2(=O)=O)cc(OC)c1OC (stereo not drawn)	inactive: > 100 µM
O=C(Nc1cc(Cl)ccc1Cl)c1cc2ccccc2oc1=O	inactive: > 100 µM
C[C@H](C(O)CC(=O)C(C)(C)O)[C@H]1CC[C@@]2(C)[C@@H]3CC[C@H]4C(C)(C)[C@@H](OC5OC(COC6OC(CO)C(O)C(O)C6O)C(O)C(O)C5O)CC[C@]4(C)C3=CC[C@]12C (stereo partly drawn)	inactive: > 100 µM
CC(C)(C)OC(=O)N(CCCCNC(=O)C(F)(F)F)CCCNC(=O)C(F)(F)F	inactive: > 100 µM
N#CS/C(C(Cl)=C(Cl)Cl)=C(/Cl)[N+](=O)[O-]	inactive: 17.7 µM
O=[N+]([O-])c1cnn(C2=CNc3ccccc3N=C2)c1	inactive: > 100 µM
Nc1nnc(N)n1N	inactive: > 100 µM
COC(=O)C(C(=O)C(=O)Nc1ccc([N+](=O)[O-])cc1[N+](=O)[O-])c1nc2ccc(Cl)cc2nc1O (stereo not drawn)	inactive: > 100 µM
C[C@]12CC[C@@H]3c4ccc(OC(=O)c5ccccc5)cc4CC[C@H]3[C@@H]1CCC2OC(=O)c1cccc2c(=O)c3ccccc3[nH]c12 (stereo partly drawn)	inactive: 21.4 µM
COc1ccc2c(c1OCC(=O)O)C(=O)C(CCC(=O)O)CC2 (stereo not drawn)	inactive: > 100 µM
N#CC(c1ccccc1)N(CCc1ccccc1)C(=O)c1ccccc1 (stereo not drawn)	inactive: > 100 µM
COc1ccc([C@@]2(O)c3c(ccc(O)c3OC)[C@H]2OC)c(OC)c1	inactive: 60.8 µM
Cc1ccc2ccc(-c3ccccc3)c3c2c1C(=O)c1ccccc1C3=O	inactive: > 100 µM
Oc1ccc(-c2cc(-c3c(O)cc(O)cc3O)on2)cc1	inactive: > 100 µM
Cc1cc(N(CCOS(C)(=O)=O)CCOS(C)(=O)=O)ccc1/C=N/c1ccc(-c2nc(Cc3ccccc3)sc2C)cc1	inactive: 4.95 µM
O=C(OCC(OC(=O)c1ccccc1)C1CC(C(O)C2CCCCC2)C(=O)O1)c1ccccc1 (stereo not drawn)	inactive: > 100 µM
C=C1CC(COc2ccc3c(C)cc(=O)oc3c2)(c2ccccc2)OC1=O (stereo not drawn)	inactive: 11.5 µM
Clc1ccc(NCc2nnc(COc3ccc(OCc4nnc(CNc5ccc(Cl)cc5)o4)c(Cl)c3)o2)cc1	inactive: 51.4 µM

Structure (SMILES)	GI50
O=C(c1nc2ccccc2nc1O)C(O)c1ccccc1 (stereo not drawn)	inactive: > 100 µM
O=C1/C(=C/c2ccc(O)cc2)CCCC1CN1CCCCC1 (stereo not drawn)	inactive: 17.3 µM
O=C1c2ccccc2C(=O)N1n1c(Cc2ccccc2)n[nH]c1=O	inactive: > 100 µM
COc1cc(N(CCC#N)CCC#N)ccc1C(/N=N/c1cccc(C)c1)=N\NC(=O)c1ccc(C)cc1	inactive: > 100 µM
CC(=O)NC1C(OCc2ccccc2)OC(CO)C(O)C1OCC(=O)N1CCCC1C(=O)N[C@@H](CCC(=O)NCCCCNc1c2ccccc2nc2cccc([N+](=O)[O-])c12)C(N)=O (stereo partly drawn)	inactive: 23.4 µM
CN1CCN(C(=S)N(C(=O)c2ccco2)c2ccccc2)CC1	inactive: > 100 µM
CCOC(=O)[C@H]1C[C@]23CN(C(=O)OC(C)(C)C)CC[C@H]2CCC2(SCCCS2)[C@@H]3N1C	inactive: 54 µM
CC(=O)OCCOCNC(=S)N/N=C(\C)c1ccco1	inactive: > 100 µM
COc1cc(OC)c2c(c1)C(=O)C(CC(C)O)=CC2=O (stereo not drawn)	inactive: 17.5 µM
C/C(=C\COP(=O)(O)OP(=O)(O)O)CCCCCCOCc1ccccc1	inactive: > 100 µM
CCCCCCCCCCCCCc1nnn[nH]1	inactive: 17.7 µM
Nc1c(S(=O)(=O)O)cc(Nc2cccc(S(=O)(=O)/C=C/S(=O)(=O)O)c2)c2c1C(=O)c1ccccc1C2=O	inactive: > 100 µM
CC1C(=O)N(C)C2(CO)C(=O)O[C@H](C)C12O (stereo partly drawn)	inactive: > 100 µM
CC1CC2(CCC1OCc1ccccc1)OCCO2 (stereo not drawn)	inactive: > 100 µM
O=C(C#Cc1cnc(O)nc1O)c1ccccc1	inactive: 15.3 µM
Cc1ccsc1/C(S)=N\c1ccc(Cl)c(/C=N/OC(C)(C)C)c1	inactive: 43 µM
CC(C)(C)c1cc[n+](C[n+]2ccc(C(C)(C)C)cc2)cc1	inactive: > 100 µM
CCCCCC(=O)N[C@H]1CCc2cc(OC)c(OC)c(OC)c2-c2ccc(SC)c(=O)cc21	active: 0.0282 µM
OC1(c2ccc(Cl)cc2)c2ccccc2C2=NCc3ccccc3CN21 (stereo not drawn)	inactive: 8.24 µM
COc1ccc2c(=O)c(-c3cc(OC)c(OC)cc3OC)coc2c1	inactive: 18.3 µM
Cc1ncc([N+](=O)[O-])n1CCN(C)CCCCn1ccnc1[N+](=O)[O-]	inactive: > 100 µM
